The supplement of paper PMC8728848
Some of the results follow.

Key:
Experiment in all cases: glycan array binding signal (z-score within array); higher = stronger binding
Settings in all cases: glycan notation: IUPAC condensed, linker removed
Gal(b1-2)Gal = molecular target: Gal(b1-2)Gal
Outline: (§1)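 Glycan array data came from 3228 arrays in the Consortium for Functional Glycomics database, and only arrays with an available protein sequence were kept. Glycan names were put into IUPAC-condensed notation, and columns mapping to the same glycan were averaged. The binding signal is a within-array Z-score, averaged across arrays of one protein sequence run at different concentrations or buffers and across linkers. A negative Z-score can be read as non-binding.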

Gal(b1-3)Gal = molecular target: Gal(b1-3)Gal
Outline: as §1

Gal(b1-3)Gal(b1-4)GlcNAc = molecular target: Gal(b1-3)Gal(b1-4)GlcNAc
Outline: as §1

Gal(b1-3)GalNAc = molecular target: Gal(b1-3)GalNAc
Outline: as §1

[1] = molecular target: Gal(b1-3)GalNAc(a1-3)[Fuc(a1-2)]Gal(b1-4)Glc
Outline: as §1

[2] = molecular target: Gal(b1-3)GalNAc(a1-3)[Fuc(a1-2)]Gal(b1-4)GlcNAc
Outline: as §1

Gal(b1-3)GalNAc(b1-3)Gal = molecular target: Gal(b1-3)GalNAc(b1-3)Gal
Outline: as §1

[3] = molecular target: Gal(b1-3)GalNAc(b1-3)Gal(a1-4)Gal(b1-4)Glc
Outline: as §1

[4] = molecular target: Gal(b1-3)GalNAc(b1-4)Gal(b1-4)Glc
Outline: as §1

[5] = molecular target: Gal(b1-3)GalNAc(b1-4)[Neu5Ac(a2-3)]Gal(b1-4)Glc
Outline: as §1

Gal(b1-3)GlcNAc = molecular target: Gal(b1-3)GlcNAc
Outline: as §1

[6] = molecular target: Gal(b1-3)GlcNAc(a1-3)Gal(b1-4)GlcNAc
Outline: as §1

[7] = molecular target: Gal(b1-3)GlcNAc(a1-6)Gal(b1-4)GlcNAc
Outline: as §1

Gal(b1-3)GlcNAc(b1-2)Man = molecular target: Gal(b1-3)GlcNAc(b1-2)Man
Outline: as §1

[8] = molecular target: Gal(b1-3)GlcNAc(b1-2)Man(a1-3)[Gal(b1-3)GlcNAc(b1-2)Man(a1-6)]Man(b1-4)GlcNAc(b1-4)GlcNAc
Outline: as §1

[9] = molecular target: Gal(b1-3)GlcNAc(b1-2)Man(a1-3)[Gal(b1-3)GlcNAc(b1-2)Man(a1-6)]Man(b1-4)GlcNAc(b1-4)[Fuc(a1-6)]GlcNAc
Outline: as §1

[10] = molecular target: Gal(b1-3)GlcNAc(b1-2)Man(a1-3)[GlcNAc(b1-4)][Gal(b1-3)GlcNAc(b1-2)Man(a1-6)]Man(b1-4)GlcNAc(b1-4)GlcNAc
Outline: as §1

[11] = molecular target: Gal(b1-3)GlcNAc(b1-2)[Gal(b1-3)GlcNAc(b1-6)]Man(a1-6)[Gal(b1-3)GlcNAc(b1-2)Man(a1-3)]Man(b1-4)GlcNAc(b1-4)GlcNAc
Outline: as §1

[12] = molecular target: Gal(b1-3)GlcNAc(b1-3)Gal(b1-3)GlcNAc
Outline: as §1

[13] = molecular target: Gal(b1-3)GlcNAc(b1-3)Gal(b1-4)Glc
Outline: as §1

[14] = molecular target: Gal(b1-3)GlcNAc(b1-3)Gal(b1-4)GlcNAc
Outline: as §1

[15] = molecular target: Gal(b1-3)GlcNAc(b1-3)Gal(b1-4)GlcNAc(b1-2)Man(a1-3)[Gal(b1-3)GlcNAc(b1-3)Gal(b1-4)GlcNAc(b1-2)Man(a1-6)]Man(b1-4)GlcNAc(b1-4)GlcNAc
Outline: as §1

[16] = molecular target: Gal(b1-3)GlcNAc(b1-3)Gal(b1-4)GlcNAc(b1-2)[Gal(b1-3)GlcNAc(b1-3)Gal(b1-4)GlcNAc(b1-6)]Man(a1-6)[Gal(b1-3)GlcNAc(b1-3)Gal(b1-4)GlcNAc(b1-2)Man(a1-3)]Man(b1-4)GlcNAc(b1-4)[Fuc(a1-6)]GlcNAc
Outline: as §1

[17] = molecular target: Gal(b1-3)GlcNAc(b1-3)Gal(b1-4)GlcNAc(b1-3)Gal(b1-4)GlcNAc(b1-2)[Gal(b1-3)GlcNAc(b1-3)Gal(b1-4)GlcNAc(b1-3)Gal(b1-4)GlcNAc(b1-6)]Man(a1-6)[Gal(b1-3)GlcNAc(b1-3)Gal(b1-4)GlcNAc(b1-3)Gal(b1-4)GlcNAc(b1-2)Man(a1-3)]Man(b1-4)GlcNAc(b1-4)[Fuc(a1-6)]GlcNAc
Outline: as §1

[18] = molecular target: Gal(b1-3)GlcNAc(b1-3)Gal(b1-4)GlcNAc(b1-6)[Gal(b1-3)GlcNAc(b1-3)]Gal(b1-4)Glc
Outline: as §1

[19] = molecular target: Gal(b1-3)GlcNAc(b1-3)Gal(b1-4)[Fuc(a1-3)]GlcNAc
Outline: as §1

[20] = molecular target: Gal(b1-3)GlcNAc(b1-3)Gal(b1-4)[Fuc(a1-3)]GlcNAc(b1-6)[Gal(b1-3)GlcNAc(b1-3)]Gal(b1-4)Glc
Outline: as §1

[21] = molecular target: Gal(b1-3)GlcNAc(b1-3)GalNAc
Outline: as §1

[22] = molecular target: Gal(b1-3)GlcNAc(b1-6)Gal(b1-4)GlcNAc
Outline: as §1

[23] = molecular target: Gal(b1-3)GlcNAc(b1-6)GalNAc
Outline: as §1

[24] = molecular target: Gal(b1-3)GlcNAc(b1-6)[Gal(b1-3)]GalNAc
Outline: as §1

Gal(b1-3)GlcNAc6S = molecular target: Gal(b1-3)GlcNAc6S
Outline: as §1

[25] = molecular target: Gal(b1-3)[Fuc(a1-4)]GlcNAc
Outline: as §1

[26] = molecular target: Gal(b1-3)[Fuc(a1-4)]GlcNAc(b1-2)Man
Outline: as §1

[27] = molecular target: Gal(b1-3)[Fuc(a1-4)]GlcNAc(b1-2)Man(a1-3)[Gal(b1-3)[Fuc(a1-4)]GlcNAc(b1-2)Man(a1-6)]Man(b1-4)GlcNAc(b1-4)[Fuc(a1-6)]GlcNAc
Outline: as §1

[28] = molecular target: Gal(b1-3)[Fuc(a1-4)]GlcNAc(b1-3)Gal(b1-3)[Fuc(a1-4)]GlcNAc
Outline: as §1

[29] = molecular target: Gal(b1-3)[Fuc(a1-4)]GlcNAc(b1-3)Gal(b1-4)[Fuc(a1-3)]GlcNAc
Outline: as §1

B1: PX14367A-bth-493-35-493 (Bacteroides thetaiotaomicron) (protein)
chain: VSSDQVAVAGNAERLFNGAWYNLFEYGTTYANIGYRALQCQDDMMASDVVSRPKYGFNSSYQFNDVAIPSDGRTSFAWYLIYKTIDNCNTAISIKGDSEELRQAQGQALALRAFCYLHLVQHYQFTYLKDKDAPCVPIYTEPTTSGTKPKGKSTVAQVYQQIFDDLNLAQDYLTNYVRKGDGQKFKPNTDVVNGLMARAYLLTGQWGEAAKAAEAARKGYSLMTTTAEYEGFNNISNKEWIWGSPQTLSQSDASYNFYYLDATYVGAYSSFMADPHLMDTFVKGDIRLPLFQWMREGYLGYKKFHMRSDDTADLVLMRSAEMYLIEAEAKVRDGVALDQAVAPLNTLRTARGVGNYDVTGKTKEQVIDEILMERRRELWGEGFGITDVLRNQKAVERMALSEDMQKTEVDCWQEGGSFAKRNPLGHWFLNFPDGKAFSANSSYYLYAIPEKEINANPNL
glycan array binding signal (z-score) (Gal(b1-2)Gal): 0.286 | glycan array binding signal (z-score) (Gal(b1-3)Gal): -0.437 | glycan array binding signal (z-score) (Gal(b1-3)Gal(b1-4)GlcNAc): -0.434 | glycan array binding signal (z-score) (Gal(b1-3)GalNAc): -0.295 | glycan array binding signal (z-score) [1]: -0.428 | glycan array binding signal (z-score) [2]: 0.204 | glycan array binding signal (z-score) (Gal(b1-3)GalNAc(b1-3)Gal): -0.328 | glycan array binding signal (z-score) [3]: -0.087 | glycan array binding signal (z-score) [4]: -0.527 | glycan array binding signal (z-score) [5]: -0.367 | glycan array binding signal (z-score) (Gal(b1-3)GlcNAc): -0.271 | glycan array binding signal (z-score) [6]: -0.265 | glycan array binding signal (z-score) [7]: -0.24 | glycan array binding signal (z-score) (Gal(b1-3)GlcNAc(b1-2)Man): 0.115 | glycan array binding signal (z-score) [8]: 1.11 | glycan array binding signal (z-score) [9]: 1.58 | glycan array binding signal (z-score) [10]: 1.39 | glycan array binding signal (z-score) [11]: 0.187 | glycan array binding signal (z-score) [12]: -0.152 | glycan array binding signal (z-score) [13]: -0.503 | glycan array binding signal (z-score) [14]: -0.664 | glycan array binding signal (z-score) [15]: 0.827 | glycan array binding signal (z-score) [16]: 0.717 | glycan array binding signal (z-score) [17]: 1.97 | glycan array binding signal (z-score) [18]: -0.479 | glycan array binding signal (z-score) [19]: -0.574 | glycan array binding signal (z-score) [20]: -0.047 | glycan array binding signal (z-score) [21]: -0.446 | glycan array binding signal (z-score) [22]: -0.759 | glycan array binding signal (z-score) [23]: -0.62 | glycan array binding signal (z-score) [24]: -0.395 | glycan array binding signal (z-score) (Gal(b1-3)GlcNAc6S): -0.62 | glycan array binding signal (z-score) [25]: -0.11 | glycan array binding signal (z-score) [26]: -0.054 | glycan array binding signal (z-score) [27]: 0.353 | glycan array binding signal (z-score) [28]: -0.392 | glycan array binding signal (z-score) [29]: -0.233
